Source: PMC4336329 (PLoS ONE, 2015)
In all, about 310,000 compounds went through this assay and about 2,200 (0.71%) showed an effect of 50% or more. Effects have a minus sign here. The list shows a part of the results.

target: human ether-à-go-go-related gene (hERG) potassium channel (human, UniProt Q12809); assay: primary screen, population patch clamp on CHO cells stably expressing hERG
Sequence (Q12809 whole entry, looked up): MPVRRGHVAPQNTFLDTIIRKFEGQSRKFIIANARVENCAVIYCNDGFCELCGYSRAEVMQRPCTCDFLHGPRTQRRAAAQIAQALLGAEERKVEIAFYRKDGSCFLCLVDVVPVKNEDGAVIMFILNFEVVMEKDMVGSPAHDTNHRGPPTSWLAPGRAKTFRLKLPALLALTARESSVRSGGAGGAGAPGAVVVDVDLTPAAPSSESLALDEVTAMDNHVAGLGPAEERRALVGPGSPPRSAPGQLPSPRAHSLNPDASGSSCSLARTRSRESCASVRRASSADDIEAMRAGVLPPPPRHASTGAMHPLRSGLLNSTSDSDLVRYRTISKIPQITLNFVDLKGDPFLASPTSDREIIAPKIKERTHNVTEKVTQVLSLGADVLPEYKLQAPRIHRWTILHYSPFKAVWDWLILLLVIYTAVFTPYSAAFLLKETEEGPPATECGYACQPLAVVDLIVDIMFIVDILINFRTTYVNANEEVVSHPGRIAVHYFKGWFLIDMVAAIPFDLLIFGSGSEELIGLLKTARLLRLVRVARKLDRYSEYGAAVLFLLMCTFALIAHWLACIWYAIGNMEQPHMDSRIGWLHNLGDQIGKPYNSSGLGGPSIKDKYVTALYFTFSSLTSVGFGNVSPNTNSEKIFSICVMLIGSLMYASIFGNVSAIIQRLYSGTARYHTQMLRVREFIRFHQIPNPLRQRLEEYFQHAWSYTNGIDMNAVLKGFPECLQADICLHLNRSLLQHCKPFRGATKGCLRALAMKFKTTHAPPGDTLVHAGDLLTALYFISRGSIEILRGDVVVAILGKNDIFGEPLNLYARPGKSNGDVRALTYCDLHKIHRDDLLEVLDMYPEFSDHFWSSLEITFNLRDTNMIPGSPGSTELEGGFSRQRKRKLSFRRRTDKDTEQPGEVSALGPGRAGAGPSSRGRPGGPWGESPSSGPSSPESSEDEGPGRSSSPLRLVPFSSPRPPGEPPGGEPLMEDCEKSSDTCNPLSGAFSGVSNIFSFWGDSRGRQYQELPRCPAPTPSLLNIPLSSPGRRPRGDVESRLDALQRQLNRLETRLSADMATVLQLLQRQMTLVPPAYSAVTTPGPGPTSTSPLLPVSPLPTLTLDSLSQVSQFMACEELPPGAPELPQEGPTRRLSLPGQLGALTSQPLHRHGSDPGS

Point of comparison: `Cc1ccc(N2C(=O)c3ccccc3NC2C(C)Cc2ccc3c(c2)OCO3)cc1` (stereo not drawn), “hERG current change (%, negative = inhibition) at 1uM” value 18.4%. Against it:
- COc1ccc(CNC(=O)Nc2cccc(C(F)(F)F)c2)cc1OC — lower, 6.69%
- O=C(CSc1nnc2c(Cl)cc(Cl)cn12)N1CCN(c2ccc(F)cc2)CC1 — lower, -18.8%
- Cn1c(-c2ccccc2Br)n[nH]c1=S — lower, 8.04%
- NC(=O)Nc1ccc(C(=O)OCC(=O)Nc2ccc(Cl)cn2)cc1 — lower, 12.4%
- Cc1ccc(OCCn2c(=O)sc3ccccc32)cc1 — lower, 6.93%
- CC(C)Cn1c(CCC(=O)O)ccc1-c1cccs1 — lower, 4.54%
- COc1cc(NS(=O)(=O)c2ccc(N/C=C(\C=O)c3nc4cc(Cl)ccc4o3)cc2)nc(OC)n1 — lower, 1.47%
- CCOC(=O)c1ccc(CN2Cc3ccccc3C2=O)cc1 — lower, 13%
- N#CC1=C(N)Oc2c(c(=O)oc3ccccc23)C1c1ccc([N+](=O)[O-])o1 (stereo not drawn) — higher, 25.4%
- CCCc1nn(C)c(C(=O)Nc2ccc(C)c(C)c2)c1Cl — lower, -4.47%
- CCCCn1c(N)c(N(CCC(C)C)C(=O)C2CSC3(C)CCC(=O)N23)c(=O)[nH]c1=O (stereo not drawn) — lower, 8.09%
- Cc1ccc(CC(=O)Nc2ccc([N+](=O)[O-])cc2C)cc1 — lower, 6.47%
- COCC(C)n1c(C)cc(C(=O)COC(=O)c2c(NC(C)=O)sc(C)c2C)c1C (stereo not drawn) — lower, 2.97%
- CS(=O)(=O)Nc1ccc(C2=NN(C(=O)c3cccc(F)c3)C(c3cccs3)C2)cc1 (stereo not drawn) — lower, -7.01%
- CCN1c2ccccc2-c2nc3ccccc3n2C1c1cccs1 (stereo not drawn) — lower, 4.28%
- COc1ccc(-n2c(Cc3cccn3C)nnc2SCC(=O)Nc2cccc(NC(C)=O)c2)cc1 — lower, 3.64%
- CC(C)(C)c1ccc(OCc2ccc(C(=O)NN)o2)cc1 — lower, 17.2%
- CCOc1ccc(N2CC(C(=O)Nc3cccc(S(=O)(=O)N4CCCCC4)c3)CC2=O)cc1 (stereo not drawn) — lower, 11.4%
- CCCc1[nH]nc2c1C1(C(=O)N(CC)c3ccccc31)C(C#N)=C(N)O2 (stereo not drawn) — lower, 0.976%
- O=C1CC(c2cccs2)Cc2nc(NCC3CCCO3)ncc21 (stereo not drawn) — lower, 10.8%
- N#Cc1ccsc1NC(=O)C1CCN(C(=O)c2ccc(Cl)cc2)CC1 — lower, -21.3%
- Cc1ccc(COC(=O)c2nn(C)c(=O)c3ccccc23)cc1 — lower, 3.84%
- CCOc1ccc(N2CC(C(=O)N3CCN(c4ccccn4)CC3)CC2=O)cc1 (stereo not drawn) — lower, -9.35%
- O=C(CSc1cccc[n+]1[O-])c1cccs1 — lower, 14.6%
- COC(=O)C(Cc1ccc(O)cc1)NC(=O)CCOc1ccc(OC)cc1 (stereo not drawn) — lower, 11.8%
- COc1ccc(-c2nc(C#N)c(N3CCN(C(=O)c4ccco4)CC3)o2)cc1OC — lower, 4.46%
- Cc1cc(F)c(F)c(C(=O)N2CCCCC2C)c1Cl (stereo not drawn) — lower, 7.82%
- Cc1cccc2c1nc(-c1ccccc1)n1nnnc21 — lower, 8.83%
- COc1ccc(S(=O)(=O)N(C)c2ccc(C(=O)NCc3ccccn3)cc2)cc1OC — lower, 13.2%
- CC(C)(C)OC(=O)NCCCC[C@H](NC(=O)c1nc[nH]c1C(=O)NCc1ccc(CNC(=O)OC(C)(C)C)cc1)C(=O)OC(C)(C)C — lower, -2.55%
- Cc1ccc(-n2c(O)c(C=NCc3ccccn3)c3ccccc3c2=O)cc1C — lower, 8.66%
- Cc1ccc(Cl)c(OCC(=O)NC2CCN(Cc3ccccc3)CC2)c1 — lower, -93.9%
- Cn1ccnc1C(O)(c1ccccc1)c1nccn1C — lower, 10.5%
- CCCCn1c(NCc2ccc(N(C)C)cc2)nc2ccccc21 — lower, -0.192%
- Cc1ccc(-c2nn(-c3ccccc3)cc2/C=N/NC(=O)c2ccc(Br)o2)cc1 — lower, 5.72%
- CCOC(=O)COc1nc(-c2ccco2)cc(-c2ccco2)c1C#N — lower, 11.5%
- Cc1nnc(-c2cccc(Br)c2)c2cn(-c3ccc(Br)cc3)nc12 — lower, -14.1%
- CC1CCN(S(=O)(=O)c2cccc(S(=O)(=O)N3CCOCC3)c2)CC1 — lower, -15.9%
- COc1ccc(OC)c(/C=N/NC(=O)c2cc[n+](Cc3ccccc3)cc2)c1.[Cl-] — lower, 3.84%
- Cc1nc2ccccc2c(=O)n1-c1cc(F)ccc1F — lower, 1.27%
- Cc1cccc(-n2c(SCC(=O)N3CCN(c4ccccn4)CC3)nnc2N2CCOCC2)c1 — lower, 0.137%
- O=C(OCCCOC(=O)c1ccc(O)cc1)c1ccc(O)cc1 — lower, 1.77%
- C[C@]1(CC/C(=C/CO)CO)[C@H](CO)CC[C@@]23COC(=O)C2=CCC[C@@H]31 — higher, 19.5%
- CCNC(=O)COC(=O)c1ccc(-c2nc3ccccc3s2)s1 — lower, 8.26%
- Cc1nonc1OCCNCCNc1ccc([N+](=O)[O-])c2cccnc12 — lower, -2.21%
- COc1ccc(NC(=O)C2OCCc3ccccc32)c(OC)c1 (stereo not drawn) — lower, 12.2%
- C=CCn1c(SCC(=O)Nc2nnc(C)s2)nnc1C1CC1 — lower, 16.3%
- CCCNC(=O)c1ccc(N2CCC3(CC2)CC(c2ccccc2)=NO3)c([N+](=O)[O-])c1 — lower, -25.4%
- CCOC(=O)c1c(C)[nH]c(C(=O)COC(=O)CCC2CCCC2)c1C — lower, 4.98%
- CCCC[N+](C)(C)CCC(=O)NC(C)(C)CS(=O)(=O)[O-] — lower, -1.09%
- Cc1cc(NC(=O)c2cc(-c3ccccn3)nc3ccccc23)no1 — lower, 8.22%
- CN1CCN(S(=O)(=O)c2ccc(Cl)s2)CC1 — lower, 9.12%
- CCS(=O)(=O)Nc1cccc(-c2ccc3nnc(C)n3n2)c1 — lower, 4.16%
- Cc1cc(S(=O)(=O)Nc2ccc3c(c2)n(C)c(=O)n3C)ccc1F — lower, 8.83%
- CCOC(=O)CNC(=O)c1sc2nc(C)cc(C)c2c1N — lower, 17.2%
- Cc1ccc(Cn2nc(C)c(NC(=O)c3noc4c3CCCCC4)c2C)cc1 — lower, -11.7%
- O=C(Nc1cnn(Cc2ccc(Cl)cc2Cl)c1)c1noc2c1CCCC2 — lower, 16.2%
- CSCCC1NC(=O)N(CC(=O)N2CCc3ccccc3C2)C1=O (stereo not drawn) — lower, -0.462%
- O=C(COc1ccc(Nc2ccccc2)cc1)OCC(=O)N1CCCCC1 — lower, 14.8%
- CN(C(=O)CSc1nnc(-c2cccnc2)n1-c1ccccc1F)C1CCS(=O)(=O)C1 (stereo not drawn) — lower, 10.8%
- Cc1cnc(CN(C)C(=O)CC2C(=O)NCCN2Cc2cccc(F)c2F)[nH]1 (stereo not drawn) — lower, 11.2%
- COc1ccc(CCNC(=O)CSc2nnc(-c3ccccc3)c3ccccc23)cc1OC — lower, 8.01%
- COC(=O)N/N=C/c1cc(C)n(-c2ccc(Br)cc2)c1C — lower, 11.4%
- O=C1CSC(c2ccccc2)N1CC12CC3CC(CC(O)(C3)C1)C2 (stereo not drawn) — lower, -1.42%
- CC1=CC2=NC(=O)/C(=C\c3cccn3CCOc3cc(C)ccc3C)C(=N)N2O1 — lower, 12%
- O=C(Nc1nncs1)C1COc2ccccc2O1 (stereo not drawn) — lower, 15%
- COc1ccc(OC)c(S(=O)(=O)NCCC(C)C)c1 — lower, 8.96%
- CC(CCc1ccccc1)NC(=O)c1cc2sccc2n1C (stereo not drawn) — lower, -0.148%
- O=C(NC(=S)Nc1ccccc1Br)C1CC1 — lower, 8.5%
- O=C(c1ccc(F)cc1)c1c[nH]c(C(=O)NCc2ccco2)c1 — lower, 2.62%
- O=[N+]([O-])c1ccccc1S(=O)(=O)NCCSCc1ccco1 — lower, 9.5%
- COc1ccc(C(=O)NNC(=O)COc2ccc(Cl)cc2)c(OC)c1 — lower, 9.45%
- CS(=O)(=O)c1cnc(-c2ccccc2)nc1-c1ccc(Cl)c(Cl)c1 — lower, 16.2%
- COC(=O)C1=C(c2ccc(F)cc2F)C[C@@H]2CC[C@H]1N2C(=O)N1CCC(O)CC1 — lower, 7.3%
- O=C(Nc1ccccc1-c1ccccc1)C12CC3CC(CC(C3)C1)C2 — lower, 9.48%
- CCN1C(=O)NC(=O)/C(=C\c2cn(CC(=O)O)c3ccccc23)C1=O — lower, 10.8%
- Cc1c(C(=O)N2CCC[C@H]2CO)oc2c(F)cccc12 — lower, 9.53%
- O=C1NC(NS(=O)(=O)c2ccccc2)(C(F)(F)F)C(=O)N1c1cccc(Cl)c1 (stereo not drawn) — lower, 6.04%
- CC(=O)O[C@]1(C(C)=O)CC[C@H]2[C@@H]3C=C(Cl)C4=CC(=O)[C@@H]5C[C@@H]5[C@]4(C)[C@H]3CC[C@@]21C — lower, 2.08%
- CCCc1cc(-c2ccc3c(c2)COc2c4ccccc4nn2-3)on1 — lower, 4.47%
- Fc1ccc(CSc2ncnc3scc(-c4ccccc4)c23)cc1 — lower, 8.04%
- COc1ccc(Nc2nc(NCCN3CCOCC3)nc(Nc3ccc(OC)cc3)n2)cc1 — lower, -10.1%
- COc1ccc(/C=C(\C#N)C(=O)N=CN(C)C)cc1 — lower, 2.91%
- CCCc1cc(C(=O)NC2CCCN(Cc3ccccc3F)C2)no1 (stereo not drawn) — lower, 8.27%
- Cc1ccc(S(=O)(=O)n2cc(C=O)c3ccccc32)cc1 — lower, 4.91%
- Cc1ccc[n+](CC(=O)N2CCCc3ccccc32)c1.[Cl-] — higher, 30.7%
